Assay results taken from PubChem BioAssay AID1347073 (National Center for Advancing Translational Sciences (NCATS), 2019).
Among all 45,000 compounds or so, about 200 (0.44%) were called active. Another 7% or so got no clear call; they are omitted. Calls follow the shape of the dose curve; as a rule, active = well fitted activation curve with a large enough effect; inconclusive = small, poorly fitted or top-dose-only effect; inactive = no such curve, though single readings can be large or run the other way. Some of the results follow.

Assay: qHTS of TDP-43 Inhibitors: NCGC Sytravon Library Screen; also: 0% is about no effect; nearly all actives have a fitted effect of over 55% in size
Conditions: yeast TDP-43 toxicity rescue, BacTiter-Glo growth, 24 h; series mostly up to 46.1 µM; growth rescue (activation): at the top concentration
In short: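 TDP-43-expressing yeast, pregrown in raffinose, seeded at OD600 0.02 in galactose medium with compound for 24 hr at 30 deg C. Growth read by BacTiter-Glo luminescence, so rescue of toxicity appears as activation.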

Structure (SMILES) | growth rescue (activation)
CCc1nc2ccc(C(=O)NCCCN3CCCC3=O)cn2c1N(C)CCC(C)C | inactive: 10.9%
O=C(CCC(=O)Nc1ccc(Cl)cc1)N/N=C/c1ccc2c(c1)OCO2 | inactive: 9.49%
O=[N+]([O-])c1c(NCc2ccccc2)cc(N2CCc3ccccc3C2)c2nonc12 | inactive: 3.09%
Cc1cc(C(F)F)nn1CC(=O)NC1C(=O)N2C(C(=O)O)=C(CSc3nnnn3C)CSC12 (centres undefined) | inactive: 2.83%
COc1ccccc1OCC(=O)OCC(=O)Nc1sccc1C(N)=O | inactive: -10.5%
CCc1ccc(NC(=O)CNCc2ccc(OC)c(OC)c2)cc1 | inactive: 10.4%
COc1ccc(Br)cc1S(=O)(=O)NCCCN1CCOCC1 | inactive: -11.2%
N#Cc1c(C(F)(F)F)cc(-c2ccccc2)nc1SCc1nc(N)nc(N2CCOCC2)n1 | inactive: 27.3%
Cc1ccc(N/N=C(\C#N)C(=N)N2CCCCC2)cc1 | inactive: -15.9%
COc1ccc(N/C=C/C(=O)C(C)(C)C)cc1 | inactive: -6.47%
CC1=C(C(=O)OCC2CCCO2)C(c2ccccc2)C2=C(CC(C)(C)CC2=O)N1 (centres undefined) | inactive: -3.89%
CCOc1cc(CNn2cnnc2)cc(Cl)c1OCC(=O)NC(C)(C)C | inactive: -5.89%
O=S(=O)(c1ccc(Cl)cc1)N1CCN(CCc2ccccc2)CC1 | inactive: -10.9%
CC(C)NC(C(=O)Nc1cc(Cl)cc(Cl)c1)c1ccccc1 (centres undefined) | inactive: 14.5%
COc1cccc(NC(=O)N2CCN(c3nnnn3-c3ccccc3)CC2)c1 | inactive: 0.336%
COc1ccc(CN2CCN(Cc3c[nH]c4ccccc34)CC2)cc1 | inactive: -15.1%
COc1cc(NC(=O)c2cc(OC)c(OC)c(OC)c2)c2ncccc2c1 | inactive: 21.1%
COc1ccc(-c2cc3nc(NCCN4CCCC4)n(C)c(=O)c3s2)cc1OC | inactive: 8.45%
CC(=O)c1ccc(N(C(=O)c2ccco2)C(C(=O)NC2CCCC2)c2ccc(N3CCOCC3)cc2)cc1 (centres undefined) | inactive: -2.43%
CCCCN(CC)CCCNC(=O)c1ccc(CSc2nc3ccncc3[nH]2)cc1 | inactive: 9.62%
O=C(O)c1ccc(NC(=O)c2cn(-c3ccccc3)nc2-c2ccc(F)cc2)cc1 | inactive: 4.07%
COc1ccc(NC(=O)c2cc(C3CCCCN3C(=O)CCCc3ccccc3)on2)c(C)c1 (centres undefined) | inactive: 10.2%
N#Cc1ccsc1NC(=O)CCN1C(=O)C2CCCCC2C1=O (centres undefined) | inactive: -8.02%
Nc1cc(F)ccc1N1CCCCCC1 | inactive: 12.3%
CCCC1CCC(=NNS(=O)(=O)c2ccc(C)c([N+](=O)[O-])c2)CC1 (centres undefined) | inactive: 4.85%
COc1ccc2nc(Cl)c(C3CC(c4ccco4)=NN3C(=O)CCCC(=O)O)cc2c1 (centres undefined) | inactive: 11%
COc1cc(CN(C)c2ccc(S(=O)(=O)N3CCCC3)cn2)ccc1OC(F)F | inactive: 1.74%
CC(C)Nc1nc(Nc2ccc(F)cc2)c2sccc2n1 | inactive: 12.7%
Cc1cc(N2CCCC2=O)cc(C)c1S(=O)(=O)Nc1c(C)nn(C)c1C | inactive: 2.76%
